Measured values published in the supplement of paper PMC11417369.
The other results are listed elsewhere or left out.

tested on: PfHDP1 homeodomain (GST-tagged); assay: gcPBM binding intensity (ln(normalized median fluorescence intensity)); higher = stronger DNA binding
Method in brief: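 Alexa488 anti-GST antibody, scanned at 488 nm, detected GST-tagged P. falciparum DNA-binding domains that had been expressed in E. coli and incubated for 1 h on an Agilent 4 × 180k array. The array carried primer-extended double-stranded 36-bp intergenic genomic probes and negative controls. Binding intensity is the highest Masliner-normalised natural-log median intensity across replicate spots of either orientation of each probe.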

Row | Sequence | gcPBM binding intensity (ln)
1 | TTTTTTTTTTTTGTAACATGCAAACAACAATATGGG [TGCATGCA_site695] | 6.62
2 | ATGTAATTGTATACATGTACGCAAACACAAAAGCAT [XGTACX_site6771] | 6.88
3 | TATATATACATAAAAACATGCAATATATACACATTA [TGCATGCA_site444] | 6.59
4 | TACTTCGATAATAATCGTACATATATATTGTATTTA [XGTACX_site5700] | 6.55
5 | CAAAAAATACGATGTTGTACTATGTATTCCTGATGT [XGTACX_site246] | 6.06
6 | AACTTTTTTATATGCACACATAAACAAGGATATATA [CACACA_site2874] | 10.3
7 | AAAAAAAAAAAAAACACACACACACCCATACACATA [CACACA_site2860] | 6.93
8 | TATCAAAATAAATGCACACAAATTGCACATATCTAT [CACACA_site1097] | 10.7
9 | ATTTATATGTAGATGTGTACTTAATTGTAATGTGTT [XGTACX_site6422] | 6.54
10 | CAAAAACATACCTACACACACAATATGTATAAATAA [CACACA_site7617] | 6.58
11 | TTGTTTTGCTAAAAATGTACTCTATATAAAAGCTTT [XGTACX_site4027] | 6.37
12 | TATATATATTATATATGTACACATATGTGAGAATGA [XGTACX_site2992] | 7.24
13 | AATTAAAATTTTTTTTTTTTTTTTTTTTTTCTATTA [CACACA_negctrl_site1585] | 5.48
14 | AAAAATAAAAAAAACACACATACCTTATTTTTGTTC [CACACA_site2634] | 7.28
15 | AAATTGATATTATATATATATATATATATATATATA [GTGCAC_negctrl_site482] | 9.29
16 | ATTTAAAAAACTTTTAGCAAAAAAAAAAAATAATAA [TGCATGCA_negctrl_site191] | 6.31
17 | TATATATAGAAACACACACACAAAAAAAAAAAAAAA [CACACA_site1506] | 6.45
18 | TATATATCCTTCTATGCATGCATATGGATAGATTTC [TGCATGCA_site58] | 6.24
19 | TGAATTTCAAAACAGTGTACATTAATATATATATAA [XGTACX_site7951] | 6.71
20 | ATATTTATGACCGTACGTACCTAACAATACAATCAA [XGTACX_site4511] | 6.79
21 | ATAATATATATATGTAGTACGTATATAATTTTAATA [XGTACX_site5228] | 6.39
22 | TGTTATATATTATATACATGCACAAAAGCAACACAA [TGCATGCA_site1009] | 8.51

Row | Sequence | gcPBM binding intensity (ln)
23 | TTCGACGAGAGCAAGTGTACTCTTGAATAATTTATA [XGTACX_site7613] | 6.33
24 | ATTTTATTTTTTGAGTGTACTAGTTCAACAACTCCG [XGTACX_site8600] | 6.52
25 | AATATATATAATAATTGTACAATACGTATGTTATAT [XGTACX_site8745] | 7.15
26 | TGTATACATAATATTTGTACATATTGTTATATATAT [XGTACX_site740] | 6.69
27 | ATATATATATACATACGTACACACAAATATTAAAAT [XGTACX_site4007] | 8.64
28 | TCCTATATCACAAATGTGCACAGAAAAAAAAAATAT | 11
29 | TTATAAAAAAAAAAAAAAAAGAAAATGAATTCACGA [CACACA_negctrl_site1248] | 5.74
30 | ATTATCAAGACATTGCGTACTTAAAAAAAAAAAAAT [XGTACX_site6347] | 6.4
31 | CATATATAATAATATTGTACATATATAATAATAATA [XGTACX_site3338] | 6.13
32 | TTATTATTCATATATTCACACATTAAAATTTTTCAA [CACACA_site4243] | 6.62
33 | ATTATATATACATATACACACATACGTACATACATA [CACACA_site9194] | 7.01
34 | ATTTCATACAGACACACACACAAACAAACATATATA [CACACA_site979] | 7.15
35 | GTGAAGGTTTATATGTGTACATATATGTATTATATA [XGTACX_site326] | 6.59
36 | GACATTTCTTGGGATACATGCATGTCCCAGAACAAA [TGCATGCA_site271] | 6.21
37 | TTTAATAAATTGTGTACACAAAACATATAAATTTCG [CACACA_site5644] | 7.21
38 | TTTTTTTTTTTTAATGCACACAGTGAACTTTTACTT [CACACA_site3567] | 9.66
39 | TTACAAATATTATAAAGTACAAACCAGTAGATTTTG [XGTACX_site2272] | 5.96
40 | TCATTCTAAATATAAACACACATAAATATGTACATT [CACACA_site7555] | 6.6
41 | TTTTTTTTTTTTAAAAGTACATAGTAGTAATTATAG [XGTACX_site4232] | 6.03
42 | TATTTTTTTTTTTTTTTTTTTACCTTTCCACTCAAA [CACACA_negctrl_site1454] | 6.03
43 | CATAAAAATGGATACACACACATAATATATATATAT [CACACA_site3619] | 8.79
44 | TAATTTTTTTTTTATTGTACTTAATATTTTTAATTT [XGTACX_site5929] | 6.3

Row | Sequence | gcPBM binding intensity (ln)
45 | AAAAAAATTAATGTGTGTACTTAGATATAATGTTTA [XGTACX_site8862] | 6.43
46 | TATATATATTAAAAACGTACAAAATAAGAATTAATT [XGTACX_site5979] | 6.8
47 | GGATATATTTTATGTACACACACATATAAGGGATTA [CACACA_site4181] | 6.52
48 | TCTAGGAAAAATTATAGTACACAAAAATATATATAT [XGTACX_site4136] | 7.95
49 | ATATATACATATACTATATCTTTTATTTTTATTATT [GTGCAC_negctrl_site127] | 6.48
50 | TTATATGCACTTTTTGCACACGTATGAATAACAAAA [CACACA_site1811] | 11.5
51 | TATGACACTTTGAAGGGTACATGCAGAAAAAAAAAA [XGTACX_site569] | 6.67
52 | AATTCAGCTTTACAACGTACACAATCATATGTCTAT [XGTACX_site8113] | 6.55
53 | ATGAAGATTTAAAAATGTACATATGATCTATGTCCT [XGTACX_site8409] | 6.2
54 | TAATACATAAATGATTGTACATAAGAATTGAAACAT [XGTACX_site4583] | 6.56
55 | TATAAATAAATAAACACACACAAATAAAATAAAAAA [CACACA_site7623] | 6.98
56 | TTTTTTTGCCATATTACACACACACCGGTAAACCCC [CACACA_site8475] | 7.16
57 | ACATATTAGGGTCATGAACACACAAAAAAAAAAAAA [CACACA_site8218] | 6.34
58 | TTTATTTATTTATTCTTATTTTTTTTTTTTTTTACT [CACACA_negctrl_site257] | 6.15
59 | ATAAAAGAATTAAATAATCAAAATGATTATTTTATA [CACACA_negctrl_site466] | 5.63
60 | CCAAAATTTATAAATTGTACATATTTTTAAATTCTT [XGTACX_site833] | 6.29
61 | GATAAATAATAATAAGGTACACATAAAATATTCCTT [XGTACX_site2963] | 6.3
62 | ATGTAGACAACATATGAACACACAAAATATTTTTTT [CACACA_site8955] | 6.57
63 | TTAACAAAATTTTTAACACACAAAAAAAAAAAAAAA [CACACA_site1828] | 6.13
64 | TAAGTAAACTTTCTATGTACATATTTTCAAATATTA [XGTACX_site6260] | 6.36
65 | CTTATATATACATATACACACACACCCATATATATA [CACACA_site8705] | 7.12
66 | GGTATAATTCATATAACACACATTTCAATGTTAAAA [CACACA_site2172] | 6.45

Row | Sequence | gcPBM binding intensity (ln)
67 | TGTATTAATTTGTAATGTACACATATATGTATTATA [XGTACX_site4152] | 6.68
68 | TATAAAAATAGGATTTGTACATATAAAAAAGGAAAA [XGTACX_site8678] | 6.64
69 | TAATATAAAAAAGGTACTACACGAAGGAATAAAAAT [XGTACX_site6872] | 7.43
70 | TATAAATATATGTATGCACACATTTTTTTTGGAAAA [CACACA_site1070] | 8.81
71 | CAGAAATAGAGATACACACACACATATATTTATGTA [CACACA_site3968] | 6.57
72 | ATGTATGCAAAAATGGTGCATATTAAATGTATAACA [GTGCAC_site9722] | 10.5
73 | AAAAAAAAAAGAAACACACACATTTGTCTATAATAT [CACACA_site7063] | 6.93
74 | TTTGTTCTTTTAATGTGTACATATACACTTGTAATA [XGTACX_site2635] | 6.81
75 | TGACCTTATGTGTTTTGAAGGGGAAAGGAAATGCGC [XGTACX_negctrl_site411] | 6.31
76 | TCTTTTGTTTAACCTACATGCAGAATATAAGTCTTC [TGCATGCA_site99] | 6.56
77 | ATTCATTATTCACCTTGTACACAAATGATTATCGTA [XGTACX_site455] | 6.78
78 | AATAATTTTTTAAACACACACACATATATATATATA [CACACA_site95] | 9.08
79 | TGTTTAAAAATAATTTGTACATATATTTTATTTCAT [XGTACX_site1272] | 6.38
80 | ATAAAGAAATAAAGTTGTACATTATATATATATATA [XGTACX_site7729] | 9.41
81 | AATACATACGGACACACACACACATATATATATATA [CACACA_site5884] | 9.34
82 | ATCTAAAAATTTTACGCACACAAGTAAAAAAAAAAA [CACACA_site2485] | 7.14
83 | TTATACACTGATAAAAGTACATTTGTATGTTTTTTT [XGTACX_site8959] | 6.22
84 | TTTTATAATCATAATAGTACTTTTTCTTTTTCACAT [XGTACX_site5017] | 6.45
85 | AGTAAAAAAAATATCTGTACATATTAATATAAATGT [XGTACX_site6234] | 6.42
86 | AAATATTATTCTTTTATTTTTAAACATATAATTATA [GTGCAC_negctrl_site136] | 6.16
87 | AAAATTCTTATAAGATGTACAATTTGTAACACTATA [XGTACX_site510] | 6.53
88 | TTATACTCACGTTACACACACACAATATATATATAT [CACACA_site4137] | 8.86
